The record followed here is article PMC8233366.

Where a chain is given by its changes, count along the chain named. Results are given in words; binding and its absence hold for the method and conditions named. Binding seen in cells or lysates may run through a third protein. Some binding calls cover weakened binding; strength is not graded here. Where a sequence is shown, tags or fusion partners need not be part of it.

What all share (experiment): co-IP; FLAG-tagged SMG7 constructs expressed in SMG7 KO cells; lysis in buffer E (20 mM HEPES-KOH pH 7.9, 100 mM KCl, 10% glycerol, 1 mM DTT, 1 µg/ml RNase A); Anti-FLAG M2 magnetic beads, 2 h at 4 °C; immunoblot (Fig. 2c, Extended Data Fig. 3f)
Assay [1] has as its target T1, FLAG-tagged SMG7 1-633 (human) (UniProt Q92540).
T1 sequence: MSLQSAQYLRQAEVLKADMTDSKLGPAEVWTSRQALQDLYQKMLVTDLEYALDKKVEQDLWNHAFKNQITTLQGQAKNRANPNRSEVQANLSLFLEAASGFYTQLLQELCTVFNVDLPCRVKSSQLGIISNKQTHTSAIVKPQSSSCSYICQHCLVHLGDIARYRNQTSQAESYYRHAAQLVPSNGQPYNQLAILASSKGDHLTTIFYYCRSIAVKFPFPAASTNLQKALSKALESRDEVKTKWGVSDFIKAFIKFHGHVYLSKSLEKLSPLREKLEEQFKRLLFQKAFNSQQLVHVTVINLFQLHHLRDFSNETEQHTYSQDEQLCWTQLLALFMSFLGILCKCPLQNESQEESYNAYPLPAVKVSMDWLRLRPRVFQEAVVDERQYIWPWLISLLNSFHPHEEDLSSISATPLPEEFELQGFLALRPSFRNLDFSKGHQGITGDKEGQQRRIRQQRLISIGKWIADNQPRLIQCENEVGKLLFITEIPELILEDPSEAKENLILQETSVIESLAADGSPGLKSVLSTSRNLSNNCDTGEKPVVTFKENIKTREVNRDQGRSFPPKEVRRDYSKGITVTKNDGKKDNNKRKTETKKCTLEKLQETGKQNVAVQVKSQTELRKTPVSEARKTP

Assay [2] addresses T2, FLAG-tagged SMG7 1-633 G100E (human) (UniProt Q92540).
T2 sequence: T1 sequence with G100E

Assay [3] has as its target T3, FLAG-tagged SMG7 G100E (human) (UniProt Q92540).
T3 sequence: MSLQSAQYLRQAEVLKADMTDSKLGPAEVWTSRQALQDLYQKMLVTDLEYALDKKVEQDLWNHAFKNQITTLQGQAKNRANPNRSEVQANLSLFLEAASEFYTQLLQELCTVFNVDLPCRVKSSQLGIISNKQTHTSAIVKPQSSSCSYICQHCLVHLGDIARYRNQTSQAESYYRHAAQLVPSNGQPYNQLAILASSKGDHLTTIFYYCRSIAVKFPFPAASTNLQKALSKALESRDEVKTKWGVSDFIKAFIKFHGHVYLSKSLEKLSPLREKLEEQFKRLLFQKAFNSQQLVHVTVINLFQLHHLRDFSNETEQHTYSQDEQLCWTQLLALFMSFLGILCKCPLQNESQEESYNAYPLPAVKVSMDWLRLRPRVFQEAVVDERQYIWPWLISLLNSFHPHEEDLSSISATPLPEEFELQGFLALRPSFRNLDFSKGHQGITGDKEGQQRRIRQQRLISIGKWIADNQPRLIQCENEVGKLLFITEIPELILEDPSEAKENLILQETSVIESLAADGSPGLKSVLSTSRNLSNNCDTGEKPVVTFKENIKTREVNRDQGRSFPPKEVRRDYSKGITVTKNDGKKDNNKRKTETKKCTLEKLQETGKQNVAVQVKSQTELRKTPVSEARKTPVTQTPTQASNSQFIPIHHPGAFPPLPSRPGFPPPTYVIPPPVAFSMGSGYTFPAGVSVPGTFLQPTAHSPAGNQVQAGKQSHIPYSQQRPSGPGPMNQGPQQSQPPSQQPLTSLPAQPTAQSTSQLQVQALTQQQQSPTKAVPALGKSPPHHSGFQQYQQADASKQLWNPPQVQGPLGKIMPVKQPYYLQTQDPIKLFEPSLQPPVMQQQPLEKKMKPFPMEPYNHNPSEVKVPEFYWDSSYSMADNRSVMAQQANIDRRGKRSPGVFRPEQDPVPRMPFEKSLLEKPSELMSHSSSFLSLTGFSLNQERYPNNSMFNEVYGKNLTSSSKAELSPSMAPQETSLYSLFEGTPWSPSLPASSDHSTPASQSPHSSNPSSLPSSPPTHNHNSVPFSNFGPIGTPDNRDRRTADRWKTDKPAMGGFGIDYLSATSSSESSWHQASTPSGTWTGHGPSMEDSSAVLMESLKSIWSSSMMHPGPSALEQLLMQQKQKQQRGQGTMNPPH

Assay [4] concerns the target T4, FLAG-tagged SMG7 WT (human) (UniProt Q92540).
T4 sequence: T3 sequence with E100G

B1: UPF1 (endogenous) (protein, UniProt Q92900 1-1129)
chain: MSVEAYGPSSQTLTFLDTEEAELLGADTQGSEFEFTDFTLPSQTQTPPGGPGGPGGGGAGGPGGAGAGAAAGQLDAQVGPEGILQNGAVDDSVAKTSQLLAELNFEEDEEDTYYTKDLPIHACSYCGIHDPACVVYCNTSKKWFCNGRGNTSGSHIVNHLVRAKCKEVTLHKDGPLGETVLECYNCGCRNVFLLGFIPAKADSVVVLLCRQPCASQSSLKDINWDSSQWQPLIQDRCFLSWLVKIPSEQEQLRARQITAQQINKLEELWKENPSATLEDLEKPGVDEEPQHVLLRYEDAYQYQNIFGPLVKLEADYDKKLKESQTQDNITVRWDLGLNKKRIAYFTLPKTDSGNEDLVIIWLRDMRLMQGDEICLRYKGDLAPLWKGIGHVIKVPDNYGDEIAIELRSSVGAPVEVTHNFQVDFVWKSTSFDRMQSALKTFAVDETSVSGYIYHKLLGHEVEDVIIKCQLPKRFTAQGLPDLNHSQVYAVKTVLQRPLSLIQGPPGTGKTVTSATIVYHLARQGNGPVLVCAPSNIAVDQLTEKIHQTGLKVVRLCAKSREAIDSPVSFLALHNQIRNMDSMPELQKLQQLKDETGELSSADEKRYRALKRTAERELLMNADVICCTCVGAGDPRLAKMQFRSILIDESTQATEPECMVPVVLGAKQLILVGDHCQLGPVVMCKKAAKAGLSQSLFERLVVLGIRPIRLQVQYRMHPALSAFPSNIFYEGSLQNGVTAADRVKKGFDFQWPQPDKPMFFYVTQGQEEIASSGTSYLNRTEAANVEKITTKLLKAGAKPDQIGIITPYEGQRSYLVQYMQFSGSLHTKLYQEVEIASVDAFQGREKDFIILSCVRANEHQGIGFLNDPRRLNVALTRARYGVIIVGNPKALSKQPLWNHLLNYYKEQKVLVEGPLNNLRESLMQFSKPRKLVNTINPGARFMTTAMYDAREAIIPGSVYDRSSQGRPSSMYFQTHDQIGMISAGPSHVAAMNIPIPFNLVMPPMPPPGYFGQANGPAAGRGTPKGKTGRGGRQKNRFGLPGPSQTNLPNSQASQDVASQPFSQGALTQGYISMSQPSQMSQPGLSQPELSQDSYLGDEFKSQIDVALSQDSTYQGERAYQHGGVTGLSQY
Regarding B1, the binding entry in assay [1], in assay [2], in assay [3] and in assay [4] was “binds” in each case.

B2: SMG5 (endogenous) (protein, UniProt Q9UPR3 1-1016)
chain: MSQGPPTGESSEPEAKVLHTKRLYRAVVEAVHRLDLILCNKTAYQEVFKPENISLRNKLRELCVKLMFLHPVDYGRKAEELLWRKVYYEVIQLIKTNKKHIHSRSTLECAYRTHLVAGIGFYQHLLLYIQSHYQLELQCCIDWTHVTDPLIGCKKPVSASGKEMDWAQMACHRCLVYLGDLSRYQNELAGVDTELLAERFYYQALSVAPQIGMPFNQLGTLAGSKYYNVEAMYCYLRCIQSEVSFEGAYGNLKRLYDKAAKMYHQLKKCETRKLSPGKKRCKDIKRLLVNFMYLQSLLQPKSSSVDSELTSLCQSVLEDFNLCLFYLPSSPNLSLASEDEEEYESGYAFLPDLLIFQMVIICLMCVHSLERAGSKQYSAAIAFTLALFSHLVNHVNIRLQAELEEGENPVPAFQSDGTDEPESKEPVEKEEEPDPEPPPVTPQVGEGRKSRKFSRLSCLRRRRHPPKVGDDSDLSEGFESDSSHDSARASEGSDSGSDKSLEGGGTAFDAETDSEMNSQESRSDLEDMEEEEGTRSPTLEPPRGRSEAPDSLNGPLGPSEASIASNLQAMSTQMFQTKRCFRLAPTFSNLLLQPTTNPHTSASHRPCVNGDVDKPSEPASEEGSESEGSESSGRSCRNERSIQEKLQVLMAEGLLPAVKVFLDWLRTNPDLIIVCAQSSQSLWNRLSVLLNLLPAAGELQESGLALCPEVQDLLEGCELPDLPSSLLLPEDMALRNLPPLRAAHRRFNFDTDRPLLSTLEESVVRICCIRSFGHFIARLQGSILQFNPEVGIFVSIAQSEQESLLQQAQAQFRMAQEEARRNRLMRDMAQLRLQLEVSQLEGSLQQPKAQSAMSPYLVPDTQALCHHLPVIRQLATSGRFIVIIPRTVIDGLDLLKKEHPGARDGIRYLEAEFKKGNRYIRCQKEVGKSFERHKLKRQDADAWTLYKILDSCKQLTLAQGAGEEDPSGMVTIITGLPLDNPSVLSGPMQAALQAAAHASVDIKNVLDFYKQWKEIG
B2: in assay [3], the binding entry was “no binding”.
